# From the supplement of paper PMC4604168 (melanoma cell lines)
# The other results are listed elsewhere or left out. Most values come without repeats; read them as rough.
# Test system: SkMel5
# Experiment: cell count relative to DMSO control; melanoma cells; higher = more viable cells
# Conditions: library dose: standard library concentration; 72 h; first compound 2 µM
# 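Note: cells treated in 1,536-well plates, then fixed and DAPI-stained, with nuclei counted from automated high-throughput microscope images.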
row,Compound,cell count [%]
1,CCCCCCCCCCCCCCCCCCOP(=O)([O-])OC1CC[N+](C)(C)CC1 [Perifosine] + C[C@]1(c2nc3c(C(N)=O)cccc3[nH]2)CCCN1 [Veliparib] (partner dose 7 µM),93.8
2,Cn1sc(=O)n(Cc2ccccc2)c1=O + Cc1cc(Nc2cc(N3CCN(C)CC3)nc(/C=C/c3ccccc3)n2)n[nH]1 [ENMD2076] (partner dose 0.2 µM),75
3,CCCCCCCCCCCCCCCCCCOP(=O)([O-])OC1CC[N+](C)(C)CC1 [Perifosine] + COc1ccc(C2=N[C@@H](c3ccc(Cl)cc3)[C@@H](c3ccc(Cl)cc3)N2C(=O)N2CCNC(=O)C2)c(OC(C)C)c1 [Nutlin-3] (partner dose 0.5 µM),79.3
4,Cn1sc(=O)n(Cc2ccccc2)c1=O + Cn1c(=O)n(-c2ccc(C(C)(C)C#N)cc2)c2c3cc(-c4cnc5ccccc5c4)ccc3ncc21 [NVP-BEZ235] (partner dose 0.02 µM),73.5
5,C[C@@H](N)c1ccc(C(=O)Nc2ccnc3[nH]ccc23)cc1 + Nc1nc(F)nc2c1ncn2[C@@H]1O[C@H](CO)[C@@H](O)[C@@H]1O [fludarabine] (partner dose 1 µM),17.7
6,C[C@@H](N)c1ccc(C(=O)Nc2ccnc3[nH]ccc23)cc1 + O=C(Nc1cccc(Cl)c1)Nc1ncc(CCNc2ncnc3ccsc23)s1 [SNS314] (partner dose 0.004 µM),65.1
7,Cn1sc(=O)n(Cc2ccccc2)c1=O + O=C(O)c1ccc2c(c1)nc(Nc1cccc(Cl)c1)c1ccncc12 [CX4945] (partner dose 2 µM),83.9
8,Cn1sc(=O)n(Cc2ccccc2)c1=O + COc1ccc(Cl)c(Nc2nc3ccccc3nc2NS(=O)(=O)c2cccc(NC(=O)C(C)(C)N)c2)c1 [XL147] (partner dose 4 µM),95.2
9,CCCCCCCCCCCCCCCCCCOP(=O)([O-])OC1CC[N+](C)(C)CC1 [Perifosine] + Cn1nnc2c(C(N)=O)ncn2c1=O [temozolomide] (partner dose 10 µM),111
10,CCCCCCCCCCCCCCCCCCOP(=O)([O-])OC1CC[N+](C)(C)CC1 [Perifosine] + Clc1ccc(Nc2nnc(Cc3ccncc3)c3ccccc23)cc1 [vatalanib] (partner dose 10 µM),95.3
11,C[C@@H](N)c1ccc(C(=O)Nc2ccnc3[nH]ccc23)cc1 + COc1cc(Nc2ncc(F)c(Nc3ccc4c(n3)NC(=O)C(C)(C)O4)n2)cc(OC)c1OC [Tamatinib] (partner dose 2 µM),31.4
12,C[C@@H](N)c1ccc(C(=O)Nc2ccnc3[nH]ccc23)cc1 + COc1cc2c(Oc3ccc4[nH]c(C)cc4c3F)ncnc2cc1OCCCN1CCCC1 [cediranib] (partner dose 2 µM),46.5
13,C[C@@H](N)c1ccc(C(=O)Nc2ccnc3[nH]ccc23)cc1 + CCCCCCCCc1ccc(CCC(N)(CO)CO)cc1 [fingolimod] (partner dose 10 µM),28.6
14,Cn1sc(=O)n(Cc2ccccc2)c1=O + C[C@]1(O)C[C@@H](c2nc(-c3ccc4ccc(-c5ccccc5)nc4c3)c3c(N)nccn32)C1 [OSI906] (partner dose 2 µM),116
15,Cn1sc(=O)n(Cc2ccccc2)c1=O + NC(=O)c1ccc(N(C(N)=O)c2c(F)cccc2F)nc1-c1ccc(F)cc1F [VX702] (partner dose 2 µM),67.8
16,C[C@@H](N)c1ccc(C(=O)Nc2ccnc3[nH]ccc23)cc1 + Cn1cnc2c(F)c(Nc3ccc(Br)cc3Cl)c(C(=O)NOCCO)cc21 [selumetinib] (partner dose 0.075 µM),54.2

row,Compound,cell count [%]
1,CCCCCCCCCCCCCCCCCCOP(=O)([O-])OC1CC[N+](C)(C)CC1 [Perifosine] + CC(C)C[C@H](NC(=O)[C@H](Cc1ccccc1)NC(=O)c1cnccn1)B(O)O [Bortezomib] (partner dose 0.005 µM),18.5
2,C[C@@H](N)c1ccc(C(=O)Nc2ccnc3[nH]ccc23)cc1 + CNC(=O)c1cc(Oc2ccc(NC(=O)Nc3ccc(Cl)c(C(F)(F)F)c3)cc2)ccn1 [sorafenib] (partner dose 2 µM),48.9
3,CCCCCCCCCCCCCCCCCCOP(=O)([O-])OC1CC[N+](C)(C)CC1 [Perifosine] + C[C@]1(O)C[C@@H](c2nc(-c3ccc4ccc(-c5ccccc5)nc4c3)c3c(N)nccn32)C1 [OSI906] (partner dose 2 µM),60.8
4,CCCCCCCCCCCCCCCCCCOP(=O)([O-])OC1CC[N+](C)(C)CC1 [Perifosine] + NC1(c2ccc(-c3nc4ccn5c(=O)[nH]nc5c4cc3-c3ccccc3)cc2)CCC1 [MK2206] (partner dose 2 µM),81.1
5,CCCCCCCCCCCCCCCCCCOP(=O)([O-])OC1CC[N+](C)(C)CC1 [Perifosine] + O=c1[nH]nc(Sc2ncc([N+](=O)[O-])s2)n1-c1ccc2c(c1)OCCO2 [BI78D3] (partner dose 1 µM),91.1
6,C[C@@H](N)c1ccc(C(=O)Nc2ccnc3[nH]ccc23)cc1 + NC1(c2ccc(-c3nc4ccn5c(=O)[nH]nc5c4cc3-c3ccccc3)cc2)CCC1 [MK2206] (partner dose 2 µM),46.2
7,CCCCCCCCCCCCCCCCCCOP(=O)([O-])OC1CC[N+](C)(C)CC1 [Perifosine] + Cc1cn(-c2cc(NC(=O)c3ccc(C)c(Nc4nccc(-c5cccnc5)n4)c3)cc(C(F)(F)F)c2)cn1 [nilotinib] (partner dose 1 µM),82.9
8,Cn1sc(=O)n(Cc2ccccc2)c1=O + CN(c1ncccc1CNc1nc(Nc2ccc3c(c2)CC(=O)N3)ncc1C(F)(F)F)S(C)(=O)=O [PF562271] (partner dose 0.4 µM),79.7
9,C[C@@H](N)c1ccc(C(=O)Nc2ccnc3[nH]ccc23)cc1 + C=C(c1ccc(C(=O)O)cc1)c1cc2c(cc1C)C(C)(C)CCC2(C)C [Bexarotene] (partner dose 10 µM),64.2
10,CCCCCCCCCCCCCCCCCCOP(=O)([O-])OC1CC[N+](C)(C)CC1 [Perifosine] + Cc1cc(Nc2cc(N3CCN(C)CC3)nc(/C=C/c3ccccc3)n2)n[nH]1 [ENMD2076] (partner dose 0.2 µM),59.1
11,C[C@@H](N)c1ccc(C(=O)Nc2ccnc3[nH]ccc23)cc1 + CN(NC(=O)CC(=O)NN(C)C(=S)c1ccccc1)C(=S)c1ccccc1 [STA4783] (partner dose 0.03 µM),24.3
12,Cn1sc(=O)n(Cc2ccccc2)c1=O + COc1cc(Nc2ncc(F)c(Nc3ccc4c(n3)NC(=O)C(C)(C)O4)n2)cc(OC)c1OC [Tamatinib] (partner dose 2 µM),59.1
13,CCCCCCCCCCCCCCCCCCOP(=O)([O-])OC1CC[N+](C)(C)CC1 [Perifosine] + OCc1c[nH]c2ccccc12 [Indole-3-carbinol] (partner dose 4 µM),107
14,C[C@@H](N)c1ccc(C(=O)Nc2ccnc3[nH]ccc23)cc1 + CS(=O)(=O)CCNCc1ccc(-c2ccc3ncnc(Nc4ccc(OCc5cccc(F)c5)c(Cl)c4)c3c2)o1 [lapatinib] (partner dose 4 µM),44.1
15,Cn1sc(=O)n(Cc2ccccc2)c1=O + O=C(O)c1ccc(-c2c[nH]c3ncc(-c4ccccc4)cc23)cc1C1CCCC1 [GSK650394] (partner dose 0.8 µM),94.3
16,Cn1sc(=O)n(Cc2ccccc2)c1=O + Cn1nnc2c(C(N)=O)ncn2c1=O [temozolomide] (partner dose 10 µM),83.6
